Measured values: PubChem BioAssay AID493208 (National Center for Advancing Translational Sciences (NCATS), 2011)
The campaign covered roughly 44,000 compounds. About 340 (0.77%) were called active. Another 5% or so got no clear call; they are omitted. The call rests on the fitted dose curve; in most records, active means well fitted inhibition curve with a large enough effect; inconclusive means small, poorly fitted or top-dose-only effect; inactive means flat fitted curve, though single readings scatter. The list shows a part of the results.

Test: Acumen qHTS Assay for Inhibitors of the mTORC1 Signaling Pathway in MEF (Tsc2-/-, p53-/-) Cells: Sytravon; further: nearly all actives have a fitted effect of over 50% in size
Settings: phospho-rpS6 immunofluorescence/PI, 24 h; series mostly up to 38.3 µM; activity change, negative = inhibition: at the top concentration
Excerpt: NIH Molecular Libraries Probe Production Centers Network [MLPCN] NIH Chemical Genomics Center [NCGC] MLPCN Grant: NS059428-01 Assay Submitter (PI): Blenis, John; Hoffman, Greg; Harvard University NCGC Assay Overview: The mammalian target of rapamycin (mTOR) is an intracellular serine/threonine kinase Aberrant regulation of mTOR signaling plays a causative role in a number of human diseases, including cancer, benign tumors such as lymphangioleiomyomatosis (LAM) and Tuberous Sclerosis Complex (TSC), and metabolic diseases such as diabetes and obesity. This project aims to identify inhibitors of ribosomal protein S6 (rpS6) phosphorylation. The phosphorylation of rpS6 is a key event downstream of mTOR activation. The assay uses a phospho-specific antibody of phospho-rpS6 to detect inhibitors of mTOR activation. Mutations in the Tsc1 and Tsc2 genes are the underlying genetic lesions responsible for TSC, causing constitutive activation of the mTORC1 pathway and leading to profound effects on cell metabolism. Aberrant metabolism in cancer has recently received significant attention as a target to develop therapeutic agents in the treatment of cancer.1 As Tsc2-/- cells have lost the ability to respond to energy and growth factor deprivation, these cells are unable to properly down regulate cellular biosynthetic processes in response to metabolic stress, and are thus extremely sensitive to glucose deprivation-induced death.2 A central goal of this project is to explore the unique cell survival and metabolic properties of cells with Tsc1 or Tsc2 by screening for compounds that selectively target the Tsc2-/- MEFs by screening both Tsc2-/- and WT MEF cell lines. We hope to better understand these aspects of TSC physiology in order to exploit them for therapeutic benefit.
NCGC Acumen Assay Protocol Summary: For quantitative high throughput analysis of mTORC1 signaling, we developed a cell-based assay for immuno-fluorescence based detection of rpS6 phosphorylation on the Acumen Explorer that will be used a platform for the primary small molecule screen. Mouse embryonic fibroblasts (MEFs) are cultured in 1536-well plates using DMEM + 10% FBS. Twenty-four hrs after plating, test compounds (solubilized in DMSO) are delivered and incubated with the cells for 24 hrs at 37 degree Celsius. Following the incubation, media with compound is aspirated and the cells are fixed in 4% paraformaldehyde (PFA) containing PBS + 0.2% TX-100. Next, PFA is aspirated, cells are washed two times with PBS plus 0.2% TX-100 and the cells are blocked for 1 hr at room temperature (blocking buffer: LiCOR Blocking Buffer plus 0.2% TX-100). […] Cells are washed two times with PBS plus 0.2% TX-100, and stained with 10 uM propidium iodide (PI) for 20-25 minutes for cell number measurement (1:500 dilution of Hoescht staining is also added for IN Cell imaging). The plates are scanned on the Acumen Explorer laser scanning instrument (TTP Labtech) using the 488nm laser for simultaneous excitation of the Alexa-488 and PI. […] The normalized phospho-S6 staining is calculated as the ratio of the integrated Alexa 488 intensity divided by the integrated PI intensity for the single concentration rapamycin control (7.5 nM) and DMSO columns. […] Inhibition of the pathway is defined based on the normalized phospho-S6 intensity in rapamycin treated cells. Active cells are defined as those with a normalized phospho-S6 staining above this threshold, and each treatment is reported as the % positive cells in the well, where thresholds are defined by selecting wells with the highest and lowest signal and differentiating between the % non-active and % active populations. In addition to the pathway specific phospho-S6 endpoint, the number of PI stained cells from the Acumen is recorded as a measure of cell viability. The primary screen was performed with a MEF cell line in a defined genetic background, Tsc2-/-, p53-/- cell line stably transfected with an empty vector control (Tsc2-/- MEF).
Potency means the concentration at half of the fitted maximal effect.

Row | SMILES | activity change, negative = inhibition | Potency
1 | CCCCNC(=O)C1CCN(S(=O)(=O)CCC)CC1 | inactive: 1.43% | –
2 | COc1ccc(OC)c(CNC(=O)c2ccc(C)c(NC(=O)c3nsc4ccccc34)c2)c1 | inactive: -0.945% | –
3 | Cc1ccc(Cn2c(CNS(=O)(=O)c3cccc([N+](=O)[O-])c3)nc3cccnc32)cc1 | inactive: 0.437% | –
4 | COc1ccc(-c2cc(C)no2)cc1S(=O)(=O)Nc1c(C)cc(C)cc1C | inactive: -18.2% | –
5 | CCOc1ccc(OCC)c(NS(=O)(=O)c2cc(-c3cnc(C)o3)ccc2OC)c1 | inactive: 0% | –
6 | Cc1nc2nncn2c(Nc2ccccc2)c1C | inactive: -4.26% | –
7 | COc1ccc(OC)c(NC(=O)c2c(N3CCCC3=O)c3cc(OC)ccc3n2C)c1 | inactive: -2.85% | –
8 | CCOC(=O)c1c(-c2ccccc2)csc1NC(=O)c1cc(=O)c2ccc(C)cc2o1 | inactive: -0.431% | –
9 | CCc1nn2c(=O)cc(COC(=O)c3cccc(NC(=O)c4cccs4)c3)nc2s1 | inactive: 0% | –
10 | Cc1ccccc1-n1nc(CO)c(C(=O)NCc2cccnc2)n1 | inactive: 4.63% | –
11 | CCc1cccc(C)c1NC(=O)Cn1cnc2c1c(=O)n(C)c(=O)n2C | inactive: -4.58% | –
12 | COCCNC(=O)Nc1cc(C(=O)NCc2ccc(C(C)C)cc2)ccc1N1CCCC1 | inactive: 15.9% | –
13 | COc1cc(C2NC(=O)c3c(sc4c3CCN(C)C4)N2)cc(Br)c1OC(=O)c1ccc(C)cc1 (configuration not stated) | inactive: -6.1% | –
14 | CCOC(=O)C1CCN(C(c2ccc(SC)cc2)c2c(O)cc(C)n(Cc3ccco3)c2=O)CC1 (configuration not stated) | inactive: 0% | –
15 | COC(=O)c1c(NC(=O)CCCOc2ccc(C(C)(C)C)cc2)sc2c1C(C(=O)OC)CC2 (configuration not stated) | inactive: -8.11% | –
16 | CCc1ccc(CNC(=O)C(C)n2ccc3cc(S(=O)(=O)N4CCCCCC4)ccc32)cc1 (configuration not stated) | inactive: -3.6% | –
17 | COc1ccc(N2CCN(C(=O)CCn3c(=O)[nH]c4cc(OC)c(OC)cc4c3=O)CC2)cc1 | inactive: -6.05% | –
18 | COc1cccc(C(=O)NCCc2csc(-c3ccc(Cl)cc3)n2)c1 | inactive: 0.382% | –
19 | Cc1cccc(NC(=O)CCS(=O)(=O)c2cccc3nsnc23)c1C | inactive: -0.053% | –
20 | COc1ccccc1N1CCN(c2ncnc3onc(-c4ccc(F)cc4)c23)CC1 | inactive: 0.625% | –
21 | Cc1ccc(NC(=O)C2CCN(S(=O)(=O)c3ccc4[nH]c5c(c4c3)CCCCC5)CC2)cc1 | inactive: -2.63% | –
22 | CCOC(=O)CSC1=Nc2ccccc2C2=NC(CCC(=O)NCc3ccc(F)cc3)C(=O)N12 (configuration not stated) | inactive: 0.711% | –
23 | O=C(NCc1cccc(F)c1)C1CCCN(C(=O)N2CCOc3ccccc32)C1 (configuration not stated) | inactive: 0.0257% | –
24 | CC1CN(C(=O)N2CCC(C(=O)NCc3cccs3)CC2)c2cc(Cl)ccc2O1 (configuration not stated) | inactive: 10.3% | –

Row | SMILES | activity change, negative = inhibition | Potency
25 | Cc1ccc(C)c(NC(=O)C2CCCN(c3nc4ccccc4s3)C2)c1 (configuration not stated) | inactive: -2% | –
26 | CCc1ccccc1NC(=O)C1CCN(S(=O)(=O)c2ccccc2)CC1 | inactive: -17.8% | –
27 | COc1ccc(CNC(=O)C(C)Sc2nc(-c3ccccc3)cc(C(F)(F)F)n2)cc1 (configuration not stated) | inactive: 4.88% | –
28 | O=C(NC1CCCC1)c1ccc(CSc2nc3ccncc3n2Cc2cccc(F)c2)cc1 | inactive: -8.79% | –
29 | CCOc1cc(C(=O)NCc2ccc3c(c2)CCN3C(=O)c2ccc(F)cc2)cc(OCC)c1OCC | inactive: 1.44% | –
30 | CCCCOc1ccc(C(=O)Nc2ccc3oc(-c4cccnc4)nc3c2)cc1 | inactive: -0.667% | –
31 | COc1ccc(OCC(=O)N2CCC(c3nc4ccccc4s3)CC2)cc1 | inactive: -0.634% | –
32 | O=C(COc1ccccc1Cl)OCc1cc(=O)n2nc(C3CCCCC3)sc2n1 | inactive: -9.02% | –
33 | Cc1ccc(CNC(=O)c2ccc3c(c2)c(C)c(C)n3Cc2ccccc2)o1 | inactive: 4.35% | –
34 | CCc1ccc(C(=O)c2cnc3ccc(F)cc3c2S(=O)(=O)c2ccccc2)cc1 | – | active: 11.7 µM
35 | CC(C)OCCCNC(=O)c1cn(C)c2ccc(S(=O)(=O)N3CCCCCC3)cc2c1=O | inactive: 0.999% | –
36 | Cc1cccc(C(=O)Nc2ccc(-c3nc4ncccc4o3)cc2C)c1 | inactive: -0.0052% | –
37 | CCn1ccc2cc(S(=O)(=O)N3CCC(C(=O)NCCc4ccccc4Cl)CC3)ccc21 | inactive: -2.45% | –
38 | CC1Cc2cc(S(=O)(=O)NCCc3ccc(Cl)cc3)ccc2N1C(=O)C1CCC1 (configuration not stated) | inactive: -6.7% | –
39 | COc1ccccc1Cn1cc(C(=O)c2ccc(Cl)cc2)c(=O)c2ccccc21 | – | active: 3.29 µM
40 | Cc1c2cnn(CC(=O)NCC(C)c3ccccc3)c(=O)c2c(C)n1Cc1cccc(Cl)c1 (configuration not stated) | inactive: -6.07% | –
41 | Cc1cccc(S(=O)(=O)c2cn(Cc3ccccc3)c3cc(N4CCOCC4)c(F)cc3c2=O)c1 | inactive: 1.01% | –
42 | Cc1oc2ccc(O)c(CN3CCCC3)c2c1C(=O)Nc1ccccc1 | inactive: -1.01% | –
43 | Cc1ccc(-n2ncc(C(=O)NCc3cccs3)c2C2CCN(C(=O)OC(C)(C)C)CC2)cc1 | inactive: 4.21% | –
44 | CCc1cccc2c(-c3ccccc3)nc(SCC(=O)Nc3ccccc3OC)nc12 | inactive: -4.22% | –
45 | COc1ccccc1NC(=O)C(C)Sc1nnc2ccc3ccccc3n12 (configuration not stated) | inactive: 0% | –
46 | Cc1ccc(CNC(=O)CN2C(=O)CCn3nc(-c4ccccc4)cc32)cc1 | inactive: 6.65% | –
47 | CCCCOc1ccc(C(=O)NCCc2csc(-c3cccc(F)c3)n2)cc1 | inactive: -0.162% | –
